# Laboratory results from PubChem BioAssay AID2202238 (Ras Initiative Chemistry Research Team, Frederick National …, 2025).
# The list shows a part of the results. Further columns of the screen follow, without active or inactive calls.
# Target: GTPase KRas (Homo sapiens) (UniProt P01116)
# Experiment: Cysteine mutants labelled by reactive fragments (mass read-out) (AID 2202238)
# Design: protein at 5 µM with 500 µM competing thiol for 1.5 h
# Conditions: KRAS G12D cysteine mutants, disulfide tethering, MALDI-TOF labeling, stronger effect = higher value, fragment at 500 µM
# [1] = measured here: G60C mutant labeling
# [2] = measured here: G75C mutant labeling
# [3] = measured here: H94C mutant labeling
# [4] = measured here: I36C mutant labeling
# [5] = measured here: L120C mutant labeling
# [6] = measured here: M67C mutant labeling
# [7] = measured here: M72C mutant labeling
# [8] = measured here: N26C mutant labeling
# [9] = measured here: N86C mutant labeling
# [10] = measured here: P121C mutant labeling
# [11] = measured here: S122C mutant labeling
# [12] = measured here: S136C mutant labeling
# Sequence of UniProt P01116 (P01116 whole entry, looked up, the tested form may be a part): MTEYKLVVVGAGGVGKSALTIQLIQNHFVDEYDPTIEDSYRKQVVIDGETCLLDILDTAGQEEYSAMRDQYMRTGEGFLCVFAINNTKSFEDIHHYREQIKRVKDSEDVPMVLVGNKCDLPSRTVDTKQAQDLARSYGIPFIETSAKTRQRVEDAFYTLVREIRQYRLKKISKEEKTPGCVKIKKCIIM
Compound,percent labeling [1],percent labeling [2],percent labeling [3],percent labeling [4],percent labeling [5],percent labeling [6],percent labeling [7],percent labeling [8],percent labeling [9],percent labeling [10],percent labeling [11],percent labeling [12]
COC1CCCCN(CC(=O)NCCS)C1=O (centres undefined),20.8%,6.9%,25.3%,18%,42.6%,20.6%,9.6%,31.1%,21.8%,29.2%,33.2%,34%
O=C(CCS)N1CCC(c2cc(=O)[nH]o2)CC1,,3.6%,19%,28.7%,27.9%,20.1%,10%,,21.3%,27.8%,38.9%,41.5%
Cc1cc(NC(=O)CCS)ccc1Oc1ccncc1,,24.2%,29.7%,24.9%,28.9%,26.8%,68.6%,,18.3%,24.7%,19.9%,39%
O=C(CCS)N1CCC(c2ccc(F)cc2)CC1,,26.3%,36%,26.6%,17.3%,21.2%,41.1%,,21.1%,23.8%,23.1%,44.8%
O=C(CCS)Nc1ccn(CCc2ccccn2)n1,,16%,36.5%,41.8%,44.8%,44.6%,32.8%,,45.1%,33.3%,32.7%,60.1%
O=C(CCS)NCc1cccc(-c2ccn[nH]2)c1,,13.8%,30.1%,39.1%,32.4%,49.5%,33.5%,,23.4%,29.7%,28.8%,52.7%
O=C(CCS)N1CCN(c2ccc(O)cc2)CC1,,9.1%,22.4%,25.6%,20.3%,37%,17.1%,,11.9%,26.2%,27.9%,43%
O=C(NCCS)c1cn[nH]c1C1CCOCC1,27.2%,16.4%,35.4%,23.6%,39.8%,31.6%,32%,43.5%,26.6%,32.2%,35.7%,47.6%
O=C(CCS)NCC(O)c1ccc(O)cc1 (centres undefined),,9.5%,26.1%,36.2%,27%,28.7%,18.7%,,30.3%,37.9%,28.3%,45.9%
COc1ncc(Br)cc1CNC(=O)CCS,,19.3%,38.1%,41.2%,26.8%,51.7%,44.4%,,28.4%,30.4%,30.5%,53.5%
O=C(CCS)NC(c1ccc(Cl)c(F)c1)c1nn[nH]n1 (centres undefined),,14.1%,34.1%,32.3%,39.9%,36.4%,32.2%,,28.6%,49.2%,38.5%,46.8%
O=C(CCC(=O)N1CC(=O)Nc2ccccc21)NCCS,34.5%,13%,29.6%,27.6%,43.2%,38.2%,23.4%,31.7%,25.4%,32.9%,29%,48.8%
CC(C)(CC(=O)NCCS)Cc1ccc(Cl)cc1,34.4%,11.2%,16.4%,12.7%,17%,12.5%,21%,42.2%,11.2%,14.2%,11%,16.9%
Cc1nc2c(o1)CCCC2CC(=O)NCCS (centres undefined),39.1%,15%,30.2%,20.7%,30.8%,26.7%,20.6%,31.5%,20.9%,29.9%,27.8%,43.7%
Cc1ccc(N(Cc2cccs2)C(=O)CCS)cc1,,20.1%,43.7%,19.7%,21.6%,27.3%,36.9%,,27.7%,26.8%,17%,46.6%
Cc1n[nH]c(=O)c(CNC(=O)CCS)c1C,,9.9%,27.2%,39.6%,27.5%,30.7%,19.1%,,19.4%,34.5%,35.8%,49.1%
O=C(NCCS)c1ccnn1C1CCOCC1,26%,19.1%,42.8%,27.4%,34.8%,32.2%,36.7%,37.8%,18.8%,29.9%,27.4%,55.1%
O=C(NCCS)c1cn[nH]c1-c1ccc(F)c(Cl)c1,55.2%,39.7%,38.8%,19.3%,38.7%,42.8%,76.4%,42%,22.3%,29.3%,19.7%,35.9%
O=C(NCCS)C1(c2ccccc2F)CCCC1,60.6%,24%,35.4%,29%,44.3%,28.2%,57.3%,34.4%,24.2%,28.1%,26.4%,51.3%
O=C(CCS)NCCc1nc2ncc(Br)cn2n1,,5.8%,23.6%,37.7%,28.8%,35.7%,16%,,22.1%,34.5%,23.7%,44.4%
Cc1sc(=O)n(CC(=O)NCCS)c1-c1ccccc1,46.5%,17.2%,28.7%,27.6%,35.1%,42.2%,38.4%,34.7%,20.3%,24%,25.3%,47.5%
COCCN(CCOc1ccc(F)cc1)C(=O)CCS,,17.1%,42.1%,36.4%,27.4%,42%,33.4%,,21%,33.6%,31.5%,54.6%
O=C(CCS)NC1CCCN(c2cc(=O)[nH]cn2)C1 (centres undefined),,9.8%,33.7%,40.4%,31.5%,38.4%,20.5%,,44%,41.8%,34.3%,54.2%
Cc1cc(N2CCC(NC(=O)CCS)C2)n(C)n1 (centres undefined),,6%,20.6%,24.2%,16.3%,24.2%,10.1%,,5.6%,24.2%,21.1%,36.2%

Compound,percent labeling [1],percent labeling [2],percent labeling [3],percent labeling [4],percent labeling [5],percent labeling [6],percent labeling [7],percent labeling [8],percent labeling [9],percent labeling [10],percent labeling [11],percent labeling [12]
O=C(CCS)N1Cc2ccc(O)cc2C2(CC2)C1,,22.2%,23.4%,27.8%,16.6%,26.7%,41.2%,,15.3%,25.2%,22.5%,52%
O=C(NCCS)c1ccc(Cc2ccccc2)[nH]1,12.3%,8.3%,9.3%,9.7%,17.6%,10.1%,23.7%,18.9%,5.6%,8.7%,6%,12.1%
O=C(CCS)Nc1ccc2c(=O)cc[nH]c2c1,,16.5%,20.2%,40.2%,22.5%,19.9%,30.9%,,26.6%,23.9%,14.1%,40.4%
CC(C)(C)c1ccc2[nH]c(C(=O)NCCS)cc2c1,16.3%,10.5%,8.5%,7.3%,14.7%,8.4%,23.4%,15.1%,11.9%,10.8%,9.1%,11.2%
CC(=O)NC1(c2noc(CCC(=O)NCCS)n2)CCCCCC1,28.5%,9.5%,27.4%,19.8%,35.6%,26.2%,14.4%,31.9%,16.9%,29%,25.1%,34%
Cc1c[nH]c(=O)n1-c1ccc(C(=O)NCCS)cc1,13.3%,4%,8.3%,0%,11.5%,8.1%,6.8%,16.9%,11.6%,11.1%,12.3%,15.2%
O=C(CCS)N1CCN(c2ccc(F)cc2Cl)CC1,,17.9%,22.6%,26.6%,19.9%,20.4%,38.7%,,19.1%,20.4%,18.3%,37.3%
CC(=O)Nc1ccc(CNC(=O)CCS)cc1,,11.5%,25.2%,40.3%,27.1%,31.2%,20.7%,,29%,29.6%,34.7%,39.2%
O=C(CCS)N1CC(c2nnc(CO)s2)C1,,5.3%,15.6%,20%,17.8%,24.7%,9.9%,,10.6%,28.6%,21%,34.9%
Cn1cnc2ccc(C(=O)NCCS)nc21,33.6%,25.4%,40.5%,26.4%,32.2%,33.2%,47.9%,47.2%,26.6%,27.6%,27.8%,51.5%
Cc1cc(C)n2nc(C)c(C(=O)NCCS)c2n1,28.8%,22.4%,22.5%,8.4%,16.2%,29.1%,34.3%,34%,10.4%,12.9%,10.9%,35.9%
COc1ccccc1Cn1cnc2cc(C(=O)NCCS)ccc21,20%,11.4%,8.3%,5.6%,12.7%,13.2%,28.8%,27.4%,5.2%,7%,3.7%,16.8%
Cc1cc(C)c(C)c(OCCC(=O)NCCS)c1,26.5%,11.5%,13.9%,9.7%,21.3%,7.5%,19.3%,21%,5.3%,13.5%,8.1%,14.6%
O=C(NCCS)c1c[nH]cc1Cc1ccccc1,25.4%,11.8%,18.8%,4.3%,18%,15.4%,22.9%,13%,2.6%,9%,0%,4.7%
Cc1cc(NC(=O)CCS)nn1Cc1cccc(C(F)(F)F)c1,,10.4%,11.9%,11%,13.8%,10.2%,23.5%,,13%,9.5%,7.7%,18.2%
Cc1c(C(=O)NCCS)oc2ccccc2c1=O,21.5%,17.1%,16.8%,12.2%,13.2%,14.1%,47.4%,34.5%,9.1%,46%,9.3%,26.2%
O=C(CCS)Nc1ccn(Cc2cn3ccccc3n2)n1,,16.6%,37.7%,47.8%,33.9%,46.5%,35.4%,,38.3%,26.2%,26%,44.7%
O=C(NCCS)c1cccc(C(=O)Nc2ccccc2)c1,14%,8.2%,12.5%,10.6%,19.4%,11%,16.8%,31%,7.5%,12.7%,7.3%,12.8%
Cn1nc(NC(=O)CCS)cc1COCCC(F)(F)F,,11.4%,32.2%,33.7%,33.1%,28.2%,27.1%,,23%,25.2%,30.3%,42.1%
O=C(CCS)NC1CCN(C2CCC2)CC1,,11.4%,22.1%,44.4%,19.2%,36.4%,12.9%,,19.9%,27.6%,21.2%,41.5%
O=C(NCCS)c1cc2n(n1)CCCC2,37.2%,23.5%,38.7%,29.1%,43.4%,37.5%,46.3%,38.7%,29.3%,29.7%,33.2%,49.7%
O=C(NCCS)c1cnn(C2CCOCC2)c1,28.6%,13.8%,28.9%,24.9%,36.8%,32.6%,24.1%,41.8%,22.3%,28.1%,29.7%,46.8%
CN(C)c1ncc2c(n1)CCN(C(=O)CCS)C2,,11.4%,17.2%,18.4%,12.3%,25.9%,17.4%,,8.6%,17.7%,25%,46.2%
